# Source: the supplement of paper PMC11417369
# ± gives the standard deviation of the averaged measurements. Some of the results follow.
# System: PfAP2-LT AP2 domain (GST-tagged)
# Assay: gcPBM binding intensity (ln(normalized median fluorescence intensity)); higher = stronger DNA binding
# Procedure, shortened: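 Binding of GST-tagged P. falciparum DNA-binding domains, expressed in E. coli and used at about 25 μg on average, was carried out for 1 h in 1× PBS containing 1% milk, 0.2 mg/ml BSA, 0.5% salmon testes DNA and 0.03% Triton X-100. The target was an Agilent 4 × 180k array of primer-extended double-stranded 36-bp intergenic genomic probes plus negative controls, read with Alexa488 anti-GST antibody at 488 nm. Binding intensity is the highest Masliner-normalised natural-log median intensity across replicate spots of either probe orientation.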
row,Sequence,gcPBM binding intensity (ln)
1,CAAAATTAATAAGTCACACACACATCTATAATATAT [CACACA_site6519],9.72 ± 0.21
2,ACCATAACATGAATTACAGGAATTGAAAATGTTCCA [CACACA_negctrl_site649],8.68 ± 0.52
3,TATATATATATATTCACACATAAGATGAATAAAGTG [CACACA_site4225],8.96 ± 0.29
4,GTATTATATATAAAAGTGCATATTTTTTTCCCTTAC,8.68 ± 0.5
5,GGTTACATTTTATTTTGTACATAAAAATTTTTATTT [XGTACX_site218],8.78 ± 0.46
6,TGTTTATAAATATAAAAAAATATATATATATATTAT [GTGCAC_negctrl_site247],8.4 ± 0.41
7,ATTTTATAATTTATATCACACACATATATATATAGT [CACACA_site7885],9.28 ± 0.4
8,TGTCCCCCTTTCTATGCACACTTTAAATTATTCAAA [CACACA_site4200],9.07 ± 0.22
9,AAAAAAAAAATACATACACACACACCCACCCATATA [CACACA_site9187],10.18 ± 0.021
10,ATTAATCCAAATGAATGTACTTAATAATGTAATTAT [XGTACX_site8946],8.62 ± 0.42
11,TTATATATAAATGAAAGTACAAAACAGGAAAGAATA [XGTACX_site1076],8.96 ± 0.47
12,AATGATATATTATAAACACACAAAGATGGATATATA [CACACA_site7349],8.95 ± 0.48
13,AATACACGCAAACACACACACACACCCACATATATA [CACACA_site638],10.3 ± 0.14
14,ATATATAATATATGTGGTACGCAAAATATTATATTA [XGTACX_site4969],8.96 ± 0.38
15,TTTATATTATAATATAATAATGATCTTAATTTTTTT [XGTACX_negctrl_site100],8.27 ± 0.55
16,TCAATATACCAAAAATGTACAAAAAATAAACAATAT [XGTACX_site8251],9.03 ± 0.43
17,GAACATTTCACATGGTGTACTCTCTTTTTCAAATAA [XGTACX_site1632],8.63 ± 0.42
18,TTTATTTTACAAAAAAGTACAAGAAGAAATATCAAT [XGTACX_site7812],8.49 ± 0.38
19,ATATTTAGAATGTTCCTACACACCAAATTTAAGTGG [CACACA_site2346],8.89 ± 0.47
20,TATTAAAAGTAAAAAACACACATGGATAAATACATA [CACACA_site6048],9.01 ± 0.53
21,TATTCGAAAGAATAGGCATGCAAACATATCTTATTA [TGCATGCA_site147],9.1 ± 0.61
22,TATTATTTATTATATGCACACATCGAACTATTATTT [CACACA_site2544],9.2 ± 0.4
23,TTCTATATTATATATGCATGTGTTATTCTTATTTTC [TGCATGCA_site92],9.07 ± 0.57

row,Sequence,gcPBM binding intensity (ln)
1,ATATAATATTAGTGCACACACAAAAATGTACTAAAC [CACACA_site632],9.33 ± 0.31
2,AAACATATAAATCACGGTACACATTATTGAAAGTGT [XGTACX_site2966],9.11 ± 0.47
3,ATAAAGAAACATATATGTACTTATATATATATATAT [XGTACX_site5625],9.15 ± 0.3
4,ATATATATTATATGCACACTTATATTTCATTAGATT [CACACA_site2599],8.95 ± 0.38
5,ATTGTATCTGTATATGCACACAATATCTGTACTTCT [CACACA_site5445],9.38 ± 0.39
6,TCATCATATTATATATGTACATATATAATAATTTAT [XGTACX_site1625],8.62 ± 0.42
7,AAATAATTAAAAAAAAGTACACATGTGACTACATAT [XGTACX_site8767],8.93 ± 0.35
8,TTATAATTTTTTTTTGCATGTGGGTTTTTTTTTGTT [TGCATGCA_site968],8.96 ± 0.38
9,TATATATATGTATACACACATACAAATATGTAAAAA [CACACA_site3720],9.02 ± 0.39
10,AAATAAAGCACACCGACACACACATATATATATATA [CACACA_site8256],10.03 ± 0.057
11,TTTCAATACTGAAACTGTACTTGTTTTACTTCTATT [XGTACX_site5924],8.92 ± 0.58
12,CGAAATCATATGTACACACACATATATATATATATA [CACACA_site2151],10.1 ± 0.18
13,ATAATTCTAAATAAATGTACACACAAAAATAAATGT [XGTACX_site3547],9.07 ± 0.4
14,GTTAATTGAAGATTCACACATAAATATATATATAAT [CACACA_site5482],8.7 ± 0.38
15,TAACGCATGAATATAATATATATATATATAAAAATA [GTGCAC_negctrl_site218],8.89 ± 0.47
16,ATTGTATGCACGTCTGCACACTTTTTTTTTTTTTTT [CACACA_site2082],8.94 ± 0.51
17,TATAGATGTATGTACATACACACATATATAAATAAA [CACACA_site1789],9.14 ± 0.39
18,TGTTAATTTATATTATGTACTTATAATTATCGTTTG [XGTACX_site1032],8.93 ± 0.41
19,TACACCCACCAACACACACACACACCCAAAAAAAAA [CACACA_site498],10.1 ± 0.14
20,AACTTTATACTTTTTTGTACTTAACCCTTACATTTT [XGTACX_site5798],9.12 ± 0.42
21,TTTATGAAACAGTGCACACATAAAAATATATACATA [CACACA_site2992],9.09 ± 0.4
22,TTTATATATTTATTCACACATATAATATTCCGTCGT [CACACA_site6120],8.99 ± 0.45
23,GTAAGATTTCTTGTTGCATGCGGTAAAAAGTAAAAT [TGCATGCA_site469],8.87 ± 0.38

row,Sequence,gcPBM binding intensity (ln)
1,TAGATAAATGGGTATACACACATATACATAAATATA [CACACA_site375],9.01 ± 0.46
2,AAAAAGAAATATTTATGTACATAATAATAATATTTT [XGTACX_site4693],8.63 ± 0.44
3,AATATAGATACATATACACACACACCCATACATATA [CACACA_site9137],9.98 ± 0.24
4,CAATTAAATATATGAACACACATGTGAACTTTCTAT [CACACA_site3977],9.06 ± 0.35
5,AAATACCTGATATATACACACTATGTTTTTCTTTTT [CACACA_site6680],9.01 ± 0.52
6,TATTAAATTATATAGACACACATTATATATATATAT [CACACA_site4345],8.99 ± 0.18
7,ATAATTATATAAATATATATAATATATATATGAAAA [XGTACX_negctrl_site357],8.58 ± 0.58
8,AAAATGGGTTAGCACATACACACCAATATATTATAT [CACACA_site3082],9.08 ± 0.42
9,AAGAAAAACATTACGTGTACCAAAAGGCCTGTCAAC [XGTACX_site267],9.13 ± 0.39
10,GTAACAAATAAAATAACACACATGTCGAAATGTATG [CACACA_site2971],9.3 ± 0.48
11,CACATACATATATACACACACAAAATAATAAAATAA [CACACA_site2308],9.54 ± 0.33
12,AAAATTATATTTTATAGAAATTTAAATAAATATATA [GTGCAC_negctrl_site199],8.14 ± 0.49
13,TTTTTAAAAATAACAGAAAAGAATTACAGATTTTTT [XGTACX_negctrl_site472],8.22 ± 0.48
14,TTTTCTTGATTTTGTAGTACATTTTTACGATATTTT [XGTACX_site63],8.84 ± 0.5
15,ATGTAAATTATTATTCTATTGTTATATACACAATAT [XGTACX_negctrl_site332],8.9 ± 0.27
16,ATATAGTTCGTTTATACACACATGATAAGATATTTA [CACACA_site1947],8.93 ± 0.36
17,AAATCACTTTTTAAGTGTACTTGGTCTTTCTCATTT [XGTACX_site7221],8.76 ± 0.53
18,TTTTTTACATCCATAAAACTTTTTCTCTTTTAAAAT [CACACA_negctrl_site1745],8.23 ± 0.36
19,AGAGAGAAAGGTATAACATGCGATAAATTTTAGAAG [TGCATGCA_site37],8.88 ± 0.59
20,TGTATTAATATGGTAATACACACTAATATACTTTTG [CACACA_site1610],8.81 ± 0.42
21,AACATAATAAAAATGGATATAATTCAAAGTTTGTAA [TGCATGCA_negctrl_site529],8.61 ± 0.55
22,TGTTATTCGACATATACACACAAATAACAATTTAAA [CACACA_site5076],8.88 ± 0.36
23,AAAAAATTGAAGGAGTGTACATTTATACTTTATTTT [XGTACX_site8623],8.71 ± 0.39

row,Sequence,gcPBM binding intensity (ln)
1,TGTAGAATTTCCTGAACATGCAAATAATTTTCCTTA [TGCATGCA_site881],8.33 ± 0.45
2,AGGTCTGTTTTATATTGTACATAAAAAGTGCACATG [XGTACX_site4529],8.82 ± 0.45
3,TAATTATAAATTATAGTGCATAAAATTGTAGCATAA,8.64 ± 0.51
4,GACATTTGTGAGCTTGAGCCGTCAAACCACTAAATA [CACACA_negctrl_site552],8.73 ± 0.38
5,AAAATATGATATGAAAAATTTGTTATATATACATAA [CACACA_negctrl_site1529],8.51 ± 0.47
6,CATATTCCAAGAATGTGTACATAATTTTTTTTTTTT [XGTACX_site4310],8.62 ± 0.3
7,CTCATAATTTCTGAACGTACGTATTTCTCATTTTTA [XGTACX_site7296],8.76 ± 0.45
8,ATTTTTTTTTAATGCAAAAGGTGATGATCGGTCATA [CACACA_negctrl_site959],8.34 ± 0.45
9,TTCTATAAGTATAAATGTACAAAAAAAACATCATTC [XGTACX_site5450],8.74 ± 0.45
10,ATTATCCATGCATTTACACACACACTAATAAAAATT [CACACA_site9358],9.5 ± 0.33
11,TTTAACATAAATTAAACACACAATAAAATACATTAA [CACACA_site6699],8.78 ± 0.43
12,CATAAATACAGATATACACACATATATATATATATA [CACACA_site4528],9.7 ± 0.45
13,GAGGTACATTAATTAGTGCATTAAAATTTTTATCCT,8.62 ± 0.42
14,ATAATACATATAGAAGGTACACTATTATTTTCCTGA [XGTACX_site903],8.74 ± 0.43
15,TGGAAACAAAAACACACACACAAAAAAAAAAAAAAA [CACACA_site3209],9.21 ± 0.61
16,TGTATTATTAATATTTGTACGTAATAATAAAAACAT [XGTACX_site3716],8.72 ± 0.48
17,TCCTTAGAAATATTGATCATAAACTGGAAAGGTATA [XGTACX_negctrl_site354],8.33 ± 0.38
18,GAAATATATAAATTGACACACACATATATACATATA [CACACA_site8323],9.38 ± 0.33
19,TAATTTCTTATGTATTGTACAAATAATATATTATTT [XGTACX_site3066],8.78 ± 0.49
20,ATTCAAAATAATCACAGTACACATGAGATTATCTTT [XGTACX_site2197],8.73 ± 0.45
